Results from PubChem BioAssay AID1159614 (National Center for Advancing Translational Sciences (NCATS), 2016).
Screen size: about 45,000 compounds; about 65 (0.1%) were called active. The call rests on the fitted dose curve; in most records, active means well fitted activation curve with a large enough effect; inconclusive means small, poorly fitted or top-dose-only effect; inactive means no such curve, though single readings can be large or run the other way. The list shows a part of the results.

What follows are molecules tested against Galactocerebrosidase (Homo sapiens) (UniProt P54803) (assay: A Novel Cell-Based Assay to Identify Small Molecules for B -Galactocerebrosidase). Details: 145M-Twi-hGALC-G270D cells (Twitcher mouse brain line with human GALC G270D), HMU-beta-Gal fluorescence, 48 h; series mostly up to 57.5 µM; activation: at the top concentration.
In short: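 Fluorescence readout: HMU-β-gal cleavage by mutant GALC (0.1 mM final, citrate/phosphate pH 5.2 with 1 mg/mL taurocholate), stopped with carbonate/bicarbonate plus Triton X-100. Cells: murine Twitcher 145M-Twi expressing human G270D GALC; qHTS for activators.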
Further: 0% is about no effect; nearly all actives have a fitted effect of over 65% in size.

Chain of UniProt P54803 (P54803 whole entry, looked up): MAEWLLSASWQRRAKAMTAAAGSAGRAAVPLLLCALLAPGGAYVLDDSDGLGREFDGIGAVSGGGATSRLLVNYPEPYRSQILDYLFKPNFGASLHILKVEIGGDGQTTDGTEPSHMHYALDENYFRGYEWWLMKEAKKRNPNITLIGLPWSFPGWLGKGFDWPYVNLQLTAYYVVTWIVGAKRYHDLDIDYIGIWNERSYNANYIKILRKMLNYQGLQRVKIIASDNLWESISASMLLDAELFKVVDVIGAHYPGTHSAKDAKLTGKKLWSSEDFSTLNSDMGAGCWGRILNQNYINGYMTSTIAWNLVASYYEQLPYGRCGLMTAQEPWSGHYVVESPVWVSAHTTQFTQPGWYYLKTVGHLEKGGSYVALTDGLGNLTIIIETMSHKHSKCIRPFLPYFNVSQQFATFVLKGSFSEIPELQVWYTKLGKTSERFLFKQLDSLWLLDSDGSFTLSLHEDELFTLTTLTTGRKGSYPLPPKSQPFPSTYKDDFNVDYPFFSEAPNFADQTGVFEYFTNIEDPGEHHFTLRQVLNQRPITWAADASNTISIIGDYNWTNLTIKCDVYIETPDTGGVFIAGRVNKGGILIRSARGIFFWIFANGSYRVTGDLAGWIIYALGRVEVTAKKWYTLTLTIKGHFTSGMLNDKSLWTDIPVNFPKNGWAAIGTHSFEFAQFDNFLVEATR

Row | Compound | activation
1 | CCCn1c2ccccc2c2cnn(CC(=O)N3CCN(c4ccccc4)CC3)c(=O)c21 | inactive: 2.22%
2 | O=C(Cn1c(=O)nc(-c2ccccc2)c2cc(Cl)ccc21)Nc1ccc(F)c(Cl)c1 | inactive: -1.49%
3 | CCOc1cc(C#N)c(NC(=O)Cn2nnc(-c3ccc(C)cc3)n2)cc1OCC | inactive: -10.8%
4 | CC(C)NC(=O)c1ccc(NC(=O)N2CCCCc3ccccc32)cc1 | inactive: -2.08%
5 | COc1cccc(CNC(=O)c2ccc(-n3c(C)cc4c3CCC(C)C4)cc2)c1 (stereo unspecified) | inactive: -12%
6 | Cc1nc(SCc2cccc(Cl)c2)nc2c1CCCC2 | inactive: -14.3%
7 | Cc1ccccc1Cn1c(SCc2ccc(C(=O)NC3CCCCC3)cc2)nc2ccncc21 | inactive: -3.17%
8 | CC(C)N(Cc1nc(-c2ccc(Cl)cc2)no1)C(=O)c1ccc(C(C)(C)C)cc1 | inactive: 1.65%
9 | O=C(NCCc1csc(-c2cccnc2)n1)c1cccc(Cl)c1 | inactive: -37.9%
10 | CCOc1ccc(CC(=O)NCCc2sc3nc(-c4ccc(F)cc4)nn3c2C)cc1 | inactive: -19.5%
11 | Cc1c(C)n(CCN(C)C)c2ccc(C(=O)OCCN(C)C)cc12 | inactive: -0.104%
12 | Cc1ccc2ncc(C(=O)c3ccc(C)c(C)c3)c(S(=O)(=O)c3ccc(F)cc3)c2c1 | inactive: -6.72%
13 | Cc1cccc(NC(=O)CSc2nc3ccc(NC(=O)c4ccccc4)cc3s2)c1 | inactive: -8.63%
14 | COc1cccc(CN2C(=O)c3ccccc3Sc3ccc(C(=O)OCc4ccco4)cc32)c1 | inactive: 0.903%
15 | CC1=C(c2ccc(Cl)cc2)S(=O)(=O)N=C1N1CCN(c2cccc(C)c2C)CC1 | inactive: -0.255%
16 | Cc1ccc(CNc2nnc(C)c3nnn(Cc4ccc(F)cc4)c23)cc1 | inactive: -27.9%
17 | Fc1ccc(NCc2ccccc2-c2nnc(-c3ccccc3Cl)o2)cc1 | inactive: -18.8%
18 | CC(=O)N1c2ccc(S(=O)(=O)N3CCCCCC3)cc2CC1C(=O)NCc1cccc(C)c1 (stereo unspecified) | inactive: -14.6%
19 | COc1cc(NC(=O)Cn2c(=O)cc(C)c3c(C)nn(-c4ccc(C)cc4)c32)cc(OC)c1 | inactive: -8.53%
20 | CCOc1ccc(-c2cc3nc(C4CCN(C(=O)OC(C)(C)C)CC4)c(C(=O)Nc4cccc(CC)c4)cn3n2)cc1 | inactive: -14.3%
21 | Cc1ccc(-n2ncc3c(NCc4ccccc4)ncnc32)cc1Cl | inactive: -15.1%
22 | CCSc1nc2n(n1)C(c1ccc(Cl)cc1Cl)C(C(=O)Nc1ccccc1C)=C(C)N2 (stereo unspecified) | inactive: -14.8%
23 | CC(C)(C)c1ccc(-c2nc(NC(=O)CSc3ncnc4sc5c(c34)CCCC5)ns2)cc1 | inactive: -5.59%
24 | CCCCOc1ccc(C(=O)N(Cc2ccc(N(C)C)cc2)Cc2ccco2)cc1 | inactive: -15.7%
25 | Cc1ccc(-n2ccn(CC(=O)NCCc3ccccc3)c(=O)c2=O)cc1C | inactive: -15.4%
26 | COc1ccc(NC(=O)CN(C)S(=O)(=O)c2ccc3c(c2)CCCN3C(C)=O)cc1 | inactive: -1.78%
